We go through nine compounds from patent publication US20230277505A1 (Arena Pharmaceuticals, Inc., priority 2003, published 2023).

Experiment [1] addresses 5-HT2A (Homo sapiens, UniProt P28223). In words: IP3 Accumulation Assay. It counts as cell-based. Particulars: averages of at least two trials. The method, then: For the IP3 accumulation assay, a transfection protocol different from the protocol set forth in Example 3 was utilized. In the following example, the protocols used for days 1-3 were slightly different for the data generated for FIGS. 12 and 14 and for FIGS. 13 and 15; the protocol for day 4 was the same for all conditions.
On day one, COS-7 cells or 293 cells were plated onto 24 well plates, usually 1×10^5 cells/well or 2×10^5 cells/well, respectively. On day two, the cells were transfected by first mixing 0.25 ug DNA (see Example 3) in 50 μl serum-free DMEM/well and then 2 μl lipofectamine in 50 μl serum-free DMEM/well. The solutions (“transfection media”) were gently mixed and incubated for 15-30 minutes at room temperature. The cells were washed with 0.5 ml PBS and then 400 μl of serum free media was mixed with the transfection media and added to the cells. The cells were then incubated for 3-4 hours at 37° C./5% CO2. Then the transfection media was removed and replaced with 1 ml/well of regular growth media. On day 3, the media was removed and the cells were washed with 5 ml PBS followed by aspiration. Then 2 ml of trypsin (0.05%) is added per plate. After 20-30 seconds, warm 293 media is added to plates, cells are gently resuspended, and cells are counted. Then a total of 55,000 cells are added to sterile poly-D-lysine treated 96 well microtiter plates and cells are allowed to attach over a six-hour incubation in an incubator. Then media is aspirated and 0.1 mL inositol-free/serum-free media (GIBCO BRL) was added to each well with 0.25 μCi of ^3H-myo-inositol/well and the cells were incubated for 16-18 hours overnight at 37° C./5% CO2. Protocol A.
On day one, 13×10^6 293 cells per 150 mm plate were plated out. On day two, 2 ml of serum OptimemI (Invitrogen Corporation) is added per plate followed by addition of 60 μL of lipofectamine and 16 μg of cDNA. Note that lipofectamine must be added to the OptimemI and mixed well before addition of cDNA. While complexes between lipofectamine and the cDNA are forming, media is carefully aspirated and cells are gently rinsed with 5 ml of OptimemI media followed by careful aspiration. Then 12 ml of OptimemI is added to each plate and 2 ml of transfection solution is added followed by a 5 hour incubation at 37° C. in a 5% CO2 incubator. Plates are then carefully aspirated and 25 mL of Complete Media are added to each plate and cells are then incubated until used. On day 3, cells are trypsinized with 2 ml of 0.05% trypsin for 20-30 seconds followed by addition of 10 mL of warmed media, gently triturated to dissociate cells, and then 13 additional ml of warmed media is gently added. Cells are then counted and then 55,000 cells are added to 96-well sterile poly-D-lysine trated plates. Cells are allowed to attach over a six hour incubation at 37° C. in a 5% CO2 incubator. Media is then carefully aspirated and 100 μL of warm inositol-free media plus 0.5 μCi ^3H-inositol is added to each well and the plates are incubated for 18-20 hours at 37° C. in a 5% CO2 incubator.
On day 4, media is carefully aspirated and then 0.1 ml of assay medium is added containing inositol-free/serum free media, 10 μM pargyline, 10 mM lithium chloride, and test compound at indicated concentrations. The plates were then incubated for three hours at 37° C. and then wells are carefully aspirated. Then 200 μL of ice-cold 0.1 M formic acid is added to each well. Plates can then be frozen at this point at −80° C. until further processed. […]

Experiment [2] concerns the target dopamine D2 receptor (Rattus norvegicus (Rat), UniProt P61169). In words: 125I-LSD displacement from brain sections (autoradiography), caudate. The class given is binding, Sprague-Dawley rats. Particulars: 1 micromolar compound, 1 nanomolar 125I-LSD.
Experiment [3] has as its target 5HT2A receptor (Rattus norvegicus (Rat), UniProt P14842). The experiment is described as follows: 125I-LSD displacement from brain sections (autoradiography), cortex. It counts as binding, Sprague-Dawley rats. Particulars: 1 micromolar compound, 1 nanomolar 125I-LSD.
Experiment [4] addresses endogenous human 5-HT2C receptor (Homo sapiens (Human), UniProt P28335). Particulars: 30 μM.
In experiment [5] the test system is male Wistar rats. In words: Effect on delta power, sleep and wakefulness in rats (EEG/EMG). Particulars: oral gavage, Compound 1 1.0 mg/kg, Compound 26 1.4 mg/kg. It counts as in vivo, rat. The method, then:
In this example, the effect of Compounds of the Invention, such as Compound 1 and Compound 26, on sleep and wakefulness was compared to the reference drug zolpidem. Drugs were administered during the middle of the light period (inactivity period).
Briefly, four compounds of the invention, including Compound 1 (1.0 mg/kg) and Compound 26 (1.4 mg/kg), were tested for their effects on sleep parameters and were compared to zolpidem (5.0 mg/kg, Sigma, St. Louis, Mo.) and vehicle control (80% Tween 80, Sigma, St. Louis, Mo.). A repeated measures design was employed in which each rat was to receive seven separate dosings via oral gavage. […] Following each dosing, animals were continuously recorded until lights out the following day (˜30 hours).
Animals were housed in a temperature controlled recording room under a 12/12 light/dark cycle (lights on at 7:00 am) and had food and water available ad libitum. Room temperature (24+2° C.), humidity (50+20% relative humidity) and lighting conditions were monitored continuously via computer. […]
EEG and EMG data were scored visually in 10 second epochs for waking (W), REMS, NREMS. Scored data were analyzed and expressed as time spent in each state per half hour. Sleep bout length and number of bouts for each state were calculated in hourly bins. […]

Experiment [6] relates to DOI-induced hypolocomotion in rats. In words: Attenuation of DOI-induced hypolocomotion in rats. It counts as in vivo, rat. Particulars: 50 μmol/kg p.o. 60 min before DOI 0.3 mg/kg s.c. The method, then: In this example, compounds of the invention, such as Compound 1 and Compound 26, were tested for inverse agonist activity by determining whether these compounds could attenuate DOI-induced hypolocomotion in rats in a novel environment. DOI is a potent 5HT2A/2C receptor agonist that crosses the blood-brain barrier.
Male Sprague-Dawley rats (Harlan, San Diego, Calif.) weighing between 200-300 g were used for all tests. Rats were housed three to four per cage. These rats were naïve to experimental testing and drug treatment. Rats were handled one to three days before testing to acclimate them to experimental manipulation. Rats were fasted overnight prior to testing.
(R)-DOI HCl (C11H16INO2·HCl) was obtained from Sigma-Aldrich, and was dissolved in 0.9% saline. Compounds of the invention were synthesized at Arena Pharmaceuticals Inc. and were dissolved in 100% PEG400. […]
The “Motor Monitor” (Hamilton-Kinder, Poway, Calif.) was used for all activity measurement. This apparatus recorded rears using infrared photobeams. […]
In determining the effects of compounds of the invention on DOI-induced hypoactivity, animals were first injected with vehicle or the compound of the invention (50 μmol/kg) in their home cages. […] 10 min after DOI administration, animals were placed into the activity apparatus and rearing activity was measured for 10 minutes.
Results (total rears over 10 minutes) were analyzed by t-test. […]

Chain of UniProt P28223 (P28223 whole entry, looked up): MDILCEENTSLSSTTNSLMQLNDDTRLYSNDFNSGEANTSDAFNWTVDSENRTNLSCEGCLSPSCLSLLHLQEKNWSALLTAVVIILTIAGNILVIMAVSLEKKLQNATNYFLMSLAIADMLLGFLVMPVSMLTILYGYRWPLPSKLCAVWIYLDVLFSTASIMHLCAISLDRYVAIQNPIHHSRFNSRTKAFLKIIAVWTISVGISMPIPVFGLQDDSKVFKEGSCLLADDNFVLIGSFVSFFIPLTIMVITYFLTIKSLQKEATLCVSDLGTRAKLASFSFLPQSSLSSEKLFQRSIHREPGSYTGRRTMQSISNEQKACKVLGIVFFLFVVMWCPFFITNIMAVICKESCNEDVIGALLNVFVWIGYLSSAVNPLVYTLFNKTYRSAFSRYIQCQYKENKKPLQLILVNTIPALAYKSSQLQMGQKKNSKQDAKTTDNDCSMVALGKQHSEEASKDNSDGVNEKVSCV
Chain of UniProt P61169 (P61169 whole entry, looked up): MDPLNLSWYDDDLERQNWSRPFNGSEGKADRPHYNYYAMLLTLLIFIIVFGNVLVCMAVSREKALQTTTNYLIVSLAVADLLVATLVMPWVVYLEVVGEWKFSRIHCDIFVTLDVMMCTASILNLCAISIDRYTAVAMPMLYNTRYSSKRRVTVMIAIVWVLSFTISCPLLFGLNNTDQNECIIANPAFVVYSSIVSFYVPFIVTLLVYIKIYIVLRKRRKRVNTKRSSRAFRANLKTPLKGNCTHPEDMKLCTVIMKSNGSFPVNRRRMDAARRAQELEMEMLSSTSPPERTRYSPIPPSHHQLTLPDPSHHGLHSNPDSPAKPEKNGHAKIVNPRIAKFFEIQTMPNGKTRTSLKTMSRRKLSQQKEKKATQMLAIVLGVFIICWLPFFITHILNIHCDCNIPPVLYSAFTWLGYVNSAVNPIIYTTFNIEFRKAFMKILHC
Chain of UniProt P14842 (P14842 whole entry): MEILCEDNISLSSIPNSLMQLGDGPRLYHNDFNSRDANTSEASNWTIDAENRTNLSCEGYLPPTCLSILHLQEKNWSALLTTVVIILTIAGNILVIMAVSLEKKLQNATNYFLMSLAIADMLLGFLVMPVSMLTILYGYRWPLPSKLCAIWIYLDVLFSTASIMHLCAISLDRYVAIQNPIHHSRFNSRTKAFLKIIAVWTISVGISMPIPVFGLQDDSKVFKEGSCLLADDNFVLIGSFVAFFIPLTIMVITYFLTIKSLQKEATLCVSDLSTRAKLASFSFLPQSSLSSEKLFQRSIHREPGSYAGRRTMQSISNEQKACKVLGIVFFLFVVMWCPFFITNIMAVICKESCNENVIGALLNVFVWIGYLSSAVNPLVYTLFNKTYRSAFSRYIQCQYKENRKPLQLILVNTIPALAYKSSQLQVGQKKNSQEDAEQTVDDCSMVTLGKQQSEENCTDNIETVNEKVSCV

In experiment [1], `Cn1ncc(Br)c1-c1cc(NC(=O)Nc2ccc(Cl)cc2)ccc1OCc1ccccc1` [Compound 61, 1-[4-Benzyloxy-3-(4-bromo-2-methyl-2H-pyrazol-3-yl)-phenyl]-3-(4-Chloro-phenyl)-urea] displayed an IC50 of 8.57 nM. Same read-out and setting: under `CC(C)Oc1ccc(NC(=O)Nc2ccc(F)cc2)cc1-c1c(Br)cnn1C` [Compound 60, 1-[3-(4-Bromo-2-methyl-2H-pyrazol-3-yl)-4-isopropoxy-phenyl]-3-(4-fluoro-phenyl)-urea] stands 1.1 nM; under `COc1ccc(NC(=O)Nc2cccc(Cl)c2)cc1-c1c(Br)cnn1C` [Compound 20, 1-[3-(4-Bromo-2-methyl-2H-pyrazol-3-yl)-4-methoxy-phenyl]-3-(3Chloro-phenyl)-urea], 0.45 nM.

Take `COc1ccc(OC(=O)Nc2cccc(-c3c(Br)cnn3C)c2)cc1` [Compound S-1610, [3-(4-Bromo-2-methyl-2H-pyrazol-3-yl)-phenyl]-carbamic acid 4-methoxy-phenyl ester]: the “displacement of 125I-LSD from the caudate (dopamine D2)” value in experiment [2] is recorded as “not the caudate”. For the same compound, the “displacement of 125I-LSD from the cortex (5HT2A)” value in experiment [3] was “appears to selectively displace”. As for `O=C(CCCN1CCC2(CC1)C(=O)NCN2c1ccccc1)c1ccc(F)cc1` [spiperone, reference compound], the “displacement of 125I-LSD from the caudate (dopamine D2)” value in experiment [2] is on record as “displaces”. Moreover, the “displacement of 125I-LSD from the cortex (5HT2A)” value in experiment [3] is “displaces”. Turning to `COc1ccc(NC(=O)Nc2ccc(Cl)c(C(F)(F)F)c2)cc1-c1c(F)cnn1C` [Compound 84, 1-(4-Chloro-3-trifluoromethyl-phenyl)-3-[3-(4-fluoro-2-methyl-2H-pyrazol-3-yl)-4-methoxy-phenyl]-urea], in experiment [1], half-maximal inhibition (IC50) was put at 12.2 nM. With `CN1CCN2c3ccccc3Cc3ccccc3C2C1` (stereo not shown) [mianserin], the “inhibition of serotonin-stimulated [35S]GTPγS binding” value in experiment [4] is given as “completely inhibited”.

Take `COc1ccc(NC(=O)Nc2ccc(Cl)cc2)cc1-c1c(Cl)cnn1C` [Compound 26, 1-[3-(4-Chloro-2-methyl-2H-pyrazol-3-yl)-4-methoxy-phenyl]-3-(4-Chloro-phenyl)-urea]: the REMS bout length entry in experiment [5] (fourth hour) is recorded as “significantly increased”. In addition, in experiment [5] (second hour following dosing (15:00), vs vehicle), the “delta power during NREMS” value is given as “significantly increased”. Besides, in experiment [6], the “DOI-induced hypolocomotion (total rears over 10 minutes)” value is “attenuated DOI-induced hypolocomotion”.

Consider `COc1ccc(NC(=O)Nc2ccc(Cl)cc2C(F)(F)F)cc1-c1c(Cl)cnn1C` [Compound 79, 1-[3-(4-Chloro-2-methyl-2H-pyrazol-3-yl)-4-methoxy-phenyl]-3-(4-chloro-2-trifluoromethyl-phenyl)-urea], for which the IC50 in experiment [1] is 13 nM.
